# Test results published in PMC4336329 (PLoS ONE, 2015).
# Hit rate of the full screen: of about 310,000 compounds, about 14,000 (4.5%) showed an effect of 50% or more. The effect is printed as a negative number. The list shows a part of the results.
# Biological target: human ether-à-go-go-related gene (hERG) potassium channel (human, UniProt Q12809)
# Assay: primary screen, population patch clamp on CHO cells stably expressing hERG
# 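Note: peak tail current of the secondary pulse compared with the same well before compound.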
# human ether-à-go-go-related gene (hERG) potassium channel, sequence (Q12809 whole entry, looked up): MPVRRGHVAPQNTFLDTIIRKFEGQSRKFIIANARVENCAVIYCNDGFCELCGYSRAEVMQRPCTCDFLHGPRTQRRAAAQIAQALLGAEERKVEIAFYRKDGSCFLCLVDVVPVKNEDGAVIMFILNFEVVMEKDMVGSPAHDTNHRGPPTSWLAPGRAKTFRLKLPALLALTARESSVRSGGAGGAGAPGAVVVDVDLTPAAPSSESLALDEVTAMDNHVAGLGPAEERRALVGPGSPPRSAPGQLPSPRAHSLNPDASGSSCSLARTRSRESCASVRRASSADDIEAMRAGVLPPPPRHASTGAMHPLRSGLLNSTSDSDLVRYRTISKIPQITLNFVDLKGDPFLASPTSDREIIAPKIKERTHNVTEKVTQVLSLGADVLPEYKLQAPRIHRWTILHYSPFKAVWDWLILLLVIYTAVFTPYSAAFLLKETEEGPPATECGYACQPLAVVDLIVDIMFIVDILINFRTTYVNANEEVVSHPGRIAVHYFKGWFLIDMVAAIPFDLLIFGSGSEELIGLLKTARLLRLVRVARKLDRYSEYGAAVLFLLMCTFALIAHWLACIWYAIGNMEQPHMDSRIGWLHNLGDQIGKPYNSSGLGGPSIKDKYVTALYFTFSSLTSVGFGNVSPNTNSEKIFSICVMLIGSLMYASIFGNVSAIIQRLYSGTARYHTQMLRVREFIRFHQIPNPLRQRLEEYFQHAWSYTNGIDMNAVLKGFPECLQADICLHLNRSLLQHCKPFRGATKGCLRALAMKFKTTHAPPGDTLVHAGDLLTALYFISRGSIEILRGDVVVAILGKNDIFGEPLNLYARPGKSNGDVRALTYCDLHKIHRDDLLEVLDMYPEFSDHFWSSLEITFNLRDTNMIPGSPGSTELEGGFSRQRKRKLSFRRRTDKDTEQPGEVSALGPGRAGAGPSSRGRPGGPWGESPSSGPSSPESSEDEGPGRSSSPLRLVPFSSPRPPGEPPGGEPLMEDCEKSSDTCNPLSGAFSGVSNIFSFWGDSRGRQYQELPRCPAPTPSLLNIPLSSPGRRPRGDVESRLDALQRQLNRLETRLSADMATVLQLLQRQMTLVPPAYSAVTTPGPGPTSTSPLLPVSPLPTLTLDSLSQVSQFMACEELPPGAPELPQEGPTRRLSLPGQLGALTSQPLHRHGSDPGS
row,SMILES,"hERG current change (%, negative = inhibition) at 10uM"
1,Cc1cc(=O)c2c(C)nn(-c3ccccc3)c2[nH]1,-8.94%
2,O=C(O)C1CC(=O)N(c2ccc3c(c2)OCCO3)C1 (stereo not shown),5.75%
3,CCC(=O)N1CCN(c2nc(CC)nc3sc4c(c23)CCCC4)CC1,-71.7%
4,CNC(=O)C(=O)NCC1OCCCN1S(=O)(=O)c1cccs1 (stereo not shown),-7.69%
5,Cc1cc(C)n(/N=C/c2ccccc2)c(=O)c1C#N,17%
6,Cc1ccc(NC(=O)c2cccc(S(=O)(=O)N3CCN(C)CC3)c2)cc1F,-24.8%
7,CCN(CC)c1nc(NN)nc(Nc2ccc(C)c(Cl)c2)n1,14.7%
8,O=C(O)CNC(=S)NCc1ccccc1,3.64%
9,O=S(=O)(NCCNc1ncc(C(F)(F)F)cc1Cl)C(F)(F)F,-49.7%
10,CCn1c(C(C)NC(=O)Cc2ccccc2)nc2ccccc21 (stereo not shown),-2.26%
11,O=C(NC1CCCCC1)C(c1ccncc1)N(Cc1ccccc1)C(=O)c1ccc(-c2ccccc2)[nH]1 (stereo not shown),4.6%
12,O=C(COc1ncnc2ccc(Br)cc12)Nc1ccc(N2CCOCC2)cc1,-5.34%
13,CSc1ccc(/C=C/C(=O)c2c(O)cc(C)oc2=O)cc1,13.2%
14,COc1ccc(CCNC(=O)c2ccc(CNc3nc(=S)[nH]c4ccccc34)cc2)cc1OC,0.739%
15,COc1cc(-c2c(C#N)c(N)nc3c2CCCC3)cc(OC)c1OC,-10.8%
16,C/C(Cl)=C\Cn1c(O)c(N=NC(N)=S)c2cc(Br)ccc21,8.96%
17,O=C(NCCN1C(=O)S/C(=C\c2ccccc2F)C1=O)C1=COCCO1,-0.827%
18,CCOC(=O)C1CCCN(c2nc3ccccc3nc2C(C#N)C(=O)OCC)C1 (stereo not shown),-14%
19,COCCCN(C(=O)CCSc1ccc(F)cc1)c1c(N)n(Cc2ccccc2)c(=O)[nH]c1=O,4.09%
20,CCOc1ccc(C(=O)NCc2ccco2)cc1OCC,13.3%
21,C=Cc1ccc(C(=O)N2CCCC(CCC(=O)N3CCN(c4ccccn4)CC3)C2)cc1 (stereo not shown),-4.57%
22,CNNC(=S)Nc1cccc(SC)c1,13.9%

row,SMILES,"hERG current change (%, negative = inhibition) at 10uM"
1,CCOC(=O)c1sc(NC(=O)CN2C(=O)NC3(CC(C)CC(C)(C)C3)C2=O)c(C(=O)OCC)c1C (stereo not shown),5.85%
2,COc1ccccc1CNC(=O)C(=O)NCC1OCCN1C(=O)c1ccc(Cl)cc1 (stereo not shown),-7.88%
3,CCc1ccc(NC(=S)N2CCN(C)CC2)cc1,1.15%
4,CCOc1ccc(C2NC(=O)C(C#N)=C(S)N2c2ccc(OC)cc2)cc1OC (stereo not shown),-1.41%
5,CN(CC(=O)Nc1cccc(F)c1)C(=O)C1CSC2(C)CCC(=O)N12 (stereo not shown),4.69%
6,O=C(C[n+]1ccccc1)N1c2ccccc2Sc2ccccc21.[Cl-],20.7%
7,C=CCc1cccc(OC)c1OCCOCCn1ccnc1.O=C(O)C(=O)O,-19.9%
8,COC(=O)c1ccc2nc(Nc3nc4ccc(F)cc4s3)sc2c1,0.543%
9,COC(=O)c1ccc(CSc2nc3c(cnn3-c3ccc(C)cc3)c(=O)[nH]2)o1,6.52%
10,O=C(C(=O)N1CCN(C(=O)c2ccco2)CC1)c1c[nH]c2ccccc12,-2.67%
11,COc1ccccc1CNC(=O)CS(=O)(=O)c1ccccc1,-26.1%
12,Cc1ccc(S(=O)(=O)N2CCCCC2)cc1NC(=O)COC(=O)Cc1cccc2ccccc12,-40.9%
13,CC(C)COC(=O)Cn1cnc2ccc(Br)cc2c1=O,-9.23%
14,COc1ccc(OC)c(CCNC(=O)CCn2nc(C)c3c(C)n(-c4ccccc4)nc3c2=O)c1,18.5%
15,CCSc1nnc(NC(=O)CCn2c(=O)oc3ccccc32)s1,14.1%
16,CCOc1ccc(CN(C)C(=O)c2cccc(S(=O)(=O)N3CCCC3)c2)cc1OC,-27.2%
17,CCOC(=O)C1(P(=O)(c2ccc(Cl)cc2)c2ccc(Cl)cc2)CCC1,-25.2%
18,Cc1ccc(C(CC(=O)N2CCCC2)c2ccccc2)c(O)c1 (stereo not shown),4.04%
19,COC(=O)COc1ccc(NS(=O)(=O)c2cccc([N+](=O)[O-])c2)cc1,-0.349%
20,O=C(COC(=O)C1(c2ccc(F)cc2)CCCC1)NCc1ccco1,-2.02%
21,Clc1ccc(OCCCCCN2CCOCC2)cc1,-37.6%
